B1: FJC828 (other)
heavy: EVQLVQSGAEVKKPGESLKISCKGSGYAFTNYLIEWVRQMPGKGLEWMGVINPGSGGTNYNEKFKGQVTISADKSISTAYLQWSSLKASDTAMYYCARWRGEGYYAYFDVWGQGTTVTVSSASTKGPSVFPLAPSSKSTSGGTAALGCLVKDYFPEPVTVSWNSGALTSGVHTFPAVLQSSGLYSLSSVVTVPSSSLGTQTYICNVNHKPSNTKVDKRV[gap - human IgG1 Fc with changes]
light: AIRLTQSPSSFSASTGDRVTITCKASQSVDYGGGGNFHLRPRDLISNINVIVLELKGSETTFMCEYADETATIVEFLNRWITFSQSIISTLTPTSSSTKKTQLQLEHLLLDLQMILNGINNYKNPKLTRMLTFKFYMPKKATELKHLQCLEEELKPLEEVLNLAQSKGGGGSDSYMNWYQQKPGKAPKLLIYAASNLESGVPSRFSGSGSGTDFTLTISSLQSEDFATYYCQQSNEDPYTFGGGTKVEIKRTVAAPSVFIFPPSDEQLKSGTASVVCLLNNFYPREAKVQWKVDNALQSGNSQESVTEQDSKDSTYSLSSTLTLSKADYEKHKVYACEVTHQGLSSPVTKSFNRGEC
B2: PGO345 (other)
heavy: EVQLVQSGAEVKKPGESLKISCKGSGYAFTNYLIEWVRQMPGKGLEWMGVINPGSGGTNYNEKFKGQVTISADKSISTAYLQWSSLKASDTAMYYCARWRGEGYYAYFDVWGQGTTVTVSSASTKGPSVFPLAPSSKSTSGGTAALGCLVKDYFPEPVTVSWNSGALTSGVHTFPAVLQSSGLYSLSSVVTVPSSSLGTQTYICNVNHKPSNTKVDKRV[gap - human IgG1 Fc with changes]
light: AIRLTQSPSSFSASTGDRVTITCKASQSVDYGGGGSGNFHLRPRDLISNINVIVLELKGSETTFMCEYADETATIVEFLNRWITFSQSIISTLTPTSSSTKKTQLQLEHLLLDLQMILNGINNYKNPKLTRMLTFKFYMPKKATELKHLQCLEEELKPLEEVLNLAQSKGGGGSGGDSYMNWYQQKPGKAPKLLIYAASNLESGVPSRFSGSGSGTDFTLTISSLQSEDFATYYCQQSNEDPYTFGGGTKVEIKRTVAAPSVFIFPPSDEQLKSGTASVVCLLNNFYPREAKVQWKVDNALQSGNSQESVTEQDSKDSTYSLSSTLTLSKADYEKHKVYACEVTHQGLSSPVTKSFNRGEC
B3: DRV470 (other)
heavy: EVQLVQSGAEVKKPGESLKISCKGSGYAFTNYLIEWVRQMPGKGLEWMGVINPGSGGTNYNEKFKGQVTISADKSISTAYLQWSSLKASDTAMYYCARWRGEGYYAYFDVWGQGTTVTVSSASTKGPSVFPLAPSSKSTSGGTAALGCLVKDYFPEPVTVSWNSGALTSGVHTFPAVLQSSGLYSLSSVVTVPSSSLGTQTYICNVNHKPSNTKVDKRV[gap - human IgG1 Fc with changes]
light: AIRLTQSPSSFSASTGDRVTITCKASQSVDYGGGGSGGGGSGGGNFHLRPRDLISNINVIVLELKGSETTFMCEYADETATIVEFLNRWITFSQSIISTLTPTSSSTKKTQLQLEHLLLDLQMILNGINNYKNPKLTRMLTFKFYMPKKATELKHLQCLEEELKPLEEVLNLAQSKGGGGSGGGGSGGGGDSYMNWYQQKPGKAPKLLIYAASNLESGVPSRFSGSGSGTDFTLTISSLQSEDFATYYCQQSNEDPYTFGGGTKVEIKRTVAAPSVFIFPPSDEQLKSGTASVVCLLNNFYPREAKVQWKVDNALQSGNSQESVTEQDSKDSTYSLSSTLTLSKADYEKHKVYACEVTHQGLSSPVTKSFNRGEC
B4: XUB802 (other)
heavy: EVQLVQSGAEVKKPGESLKISCKGSGYAFTNYLIEWVRQMPGKGLEWMGVINPGSGGTNYNEKFKGQVTISADKSISTAYLQWSSLKASDTAMYYCARWRGEGYYAYFDVWGQGTTVTVSSASTKGPSVFPLAPSSKSTSGGTAALGCLVKDYFPEPVTVSWNSGALTSGVHTFPAVLQSSGLYSLSSVVTVPSSSLGTQTYICNVNHKPSNTKVDKRV[gap - human IgG1 Fc with changes]
light: AIRLTQSPSSFSASTGDRVTITCKASQSVDYGGGGSGGGGSGGGGSGGGGNFHLRPRDLISNINVIVLELKGSETTFMCEYADETATIVEFLNRWITFSQSIISTLTPTSSSTKKTQLQLEHLLLDLQMILNGINNYKNPKLTRMLTFKFYMPKKATELKHLQCLEEELKPLEEVLNLAQSKGGGGSGGGGSGGGGSGGGGSDSYMNWYQQKPGKAPKLLIYAASNLESGVPSRFSGSGSGTDFTLTISSLQSEDFATYYCQQSNEDPYTFGGGTKVEIKRTVAAPSVFIFPPSDEQLKSGTASVVCLLNNFYPREAKVQWKVDNALQSGNSQESVTEQDSKDSTYSLSSTLTLSKADYEKHKVYACEVTHQGLSSPVTKSFNRGEC
B5: EPK959 (other)
heavy: QVQLVESGGGVVQPGRSLRLSCAASGYTFSSYLIEWVRQAPGKGLEWVAVINPGSGGTNYADSVKGRFTISADKSKNTAYLQMNSLRAEDTAVYYCARWRGDGYYAYFDVWGQGTTVTVSSASTKGPSVFPLAPSSKSTSGGTAALGCLVKDYFPEPVTVSWNSGALTSGVHTFPAVLQSSGLYSLSSVVTVPSSSLGTQTYICNVNHKPSNTKVDKRV[gap - human IgG1 Fc with changes]
light: EIVLTQSPATLSVSPGERATLSCRASQSVSYNFHLRPRDLISNINVIVLELKGSETTFMCEYADETATIVEFLNRWITFSQSIISTLTPTSSSTKKTQLQLEHLLLDLQMILNGINNYKNPKLTRMLTFKFYMPKKATELKHLQCLEEELKPLEEVLNLAQSKGDSYMNWYQQKPGQAPRLLIYAASNLASGIPARFSGSGSGTEFTLTISSLQSEDAAVYYCQQSNEDPYTFGGGTKVEIKRTVAAPSVFIFPPSDEQLKSGTASVVCLLNNFYPREAKVQWKVDNALQSGNSQESVTEQDSKDSTYSLSSTLTLSKADYEKHKVYACEVTHQGLSSPVTKSFNRGEC
B6: GYG794 (other)
heavy: QVQLVESGGGVVQPGRSLRLSCAASGYTFSSYLIEWVRQAPGKGLEWVAVINPGSGGTNYADSVKGRFTISADKSKNTAYLQMNSLRAEDTAVYYCARWRGDGYYAYFDVWGQGTTVTVSSASTKGPSVFPLAPSSKSTSGGTAALGCLVKDYFPEPVTVSWNSGALTSGVHTFPAVLQSSGLYSLSSVVTVPSSSLGTQTYICNVNHKPSNTKVDKRV[gap - human IgG1 Fc with changes]
light: EIVLTQSPATLSVSPGERATLSCRASQSVSYGGNFHLRPRDLISNINVIVLELKGSETTFMCEYADETATIVEFLNRWITFSQSIISTLTPTSSSTKKTQLQLEHLLLDLQMILNGINNYKNPKLTRMLTFKFYMPKKATELKHLQCLEEELKPLEEVLNLAQSKGGGDSYMNWYQQKPGQAPRLLIYAASNLASGIPARFSGSGSGTEFTLTISSLQSEDAAVYYCQQSNEDPYTFGGGTKVEIKRTVAAPSVFIFPPSDEQLKSGTASVVCLLNNFYPREAKVQWKVDNALQSGNSQESVTEQDSKDSTYSLSSTLTLSKADYEKHKVYACEVTHQGLSSPVTKSFNRGEC
B7: DRO069 (other)
heavy: QVQLVESGGGVVQPGRSLRLSCAASGYTFSSYLIEWVRQAPGKGLEWVAVINPGSGGTNYADSVKGRFTISADKSKNTAYLQMNSLRAEDTAVYYCARWRGDGYYAYFDVWGQGTTVTVSSASTKGPSVFPLAPSSKSTSGGTAALGCLVKDYFPEPVTVSWNSGALTSGVHTFPAVLQSSGLYSLSSVVTVPSSSLGTQTYICNVNHKPSNTKVDKRV[gap - human IgG1 Fc with changes]
light: EIVLTQSPATLSVSPGERATLSCRASQSVSYGGGNFHLRPRDLISNINVIVLELKGSETTFMCEYADETATIVEFLNRWITFSQSIISTLTPTSSSTKKTQLQLEHLLLDLQMILNGINNYKNPKLTRMLTFKFYMPKKATELKHLQCLEEELKPLEEVLNLAQSKGGGGDSYMNWYQQKPGQAPRLLIYAASNLASGIPARFSGSGSGTEFTLTISSLQSEDAAVYYCQQSNEDPYTFGGGTKVEIKRTVAAPSVFIFPPSDEQLKSGTASVVCLLNNFYPREAKVQWKVDNALQSGNSQESVTEQDSKDSTYSLSSTLTLSKADYEKHKVYACEVTHQGLSSPVTKSFNRGEC

The experiment addresses T1, IL-2R on murine splenocytes (mouse, UniProt P16297 27-539; P34902 23-369).
T1 sequence (looked up) 1: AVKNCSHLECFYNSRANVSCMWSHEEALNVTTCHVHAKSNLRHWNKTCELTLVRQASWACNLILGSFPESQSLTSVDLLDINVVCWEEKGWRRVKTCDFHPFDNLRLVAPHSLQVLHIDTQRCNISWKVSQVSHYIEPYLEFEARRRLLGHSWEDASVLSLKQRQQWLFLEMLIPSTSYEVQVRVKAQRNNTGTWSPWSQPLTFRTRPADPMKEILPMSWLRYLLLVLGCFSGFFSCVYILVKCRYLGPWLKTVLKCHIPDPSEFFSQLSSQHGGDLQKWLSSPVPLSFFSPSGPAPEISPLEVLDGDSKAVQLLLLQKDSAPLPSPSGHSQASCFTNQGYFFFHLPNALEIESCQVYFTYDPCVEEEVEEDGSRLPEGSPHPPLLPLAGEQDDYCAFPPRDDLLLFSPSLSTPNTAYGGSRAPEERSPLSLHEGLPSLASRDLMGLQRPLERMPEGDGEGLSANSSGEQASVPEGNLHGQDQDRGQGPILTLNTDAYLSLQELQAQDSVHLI
T1 sequence (looked up) 2: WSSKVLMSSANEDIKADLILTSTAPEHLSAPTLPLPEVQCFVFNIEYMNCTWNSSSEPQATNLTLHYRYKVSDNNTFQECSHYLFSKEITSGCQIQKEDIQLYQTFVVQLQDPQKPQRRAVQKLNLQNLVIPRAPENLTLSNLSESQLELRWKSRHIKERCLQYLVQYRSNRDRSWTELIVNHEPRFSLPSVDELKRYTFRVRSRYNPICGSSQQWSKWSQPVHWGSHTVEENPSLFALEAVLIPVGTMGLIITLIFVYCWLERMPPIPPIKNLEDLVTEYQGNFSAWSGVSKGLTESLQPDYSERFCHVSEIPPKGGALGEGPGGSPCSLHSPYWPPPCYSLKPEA
The experiment in a line: cell-based or functional assay.
With B1, the “EC50 CD8 cells (pSTAT5)” value came to 5.8 nM, the “EC50 NK cells (pSTAT5)” value is 1.9 nM and the “EC50 Treg cells (pSTAT5)” value is 8.4 nM.
As to B2, the “EC50 CD8 cells (pSTAT5)” value was 6.6 nM, the “EC50 NK cells (pSTAT5)” value is 2.3 nM and the “EC50 Treg cells (pSTAT5)” value was 7.6 nM.
The corresponding values for B3 are 7.9 nM, 2.4 nM and 10.3 nM.
The corresponding values for B4 are 17.1 nM, 5.8 nM and 12.1 nM.
The corresponding values for B5 are 16 nM, 1.9 nM and 16 nM.
In the case of B6, the “EC50 CD8 cells (pSTAT5)” value was determined as 18.6 nM, the “EC50 NK cells (pSTAT5)” value turned out to be 1.5 nM and the “EC50 Treg cells (pSTAT5)” value came out at 4.8 nM.
In the case of B7, the “EC50 CD8 cells (pSTAT5)” value amounted to 6.8 nM, the “EC50 NK cells (pSTAT5)” value was 0.9 nM and the “EC50 Treg cells (pSTAT5)” value was 6.6 nM.

These data come from patent publication EP4491631A1 (Anaveon AG, dated 2025).
